{"source": "paper PMC2441632", "binders": {"B1": {"name": "DmTAF3 amino acids 514 to 924 fused to Gal4 activation domain (domain or fragment, UniProt Q9XZU7 514-924)", "chain": "MTPSALISLPSGTTITPTPSLGLNSENKNVPSMKINPCNIFDGTIPLTKAGVEMSIIDSPKPKKRGRKPGGKNLIKQTNVISQPLINKVERKKSSQAITLPLSSSPMIITQSSLNVSPPTEPLNLCNTEQPSNNFLSNLYAKEKKDRKKYKSLPENVMQLDKSCSPEKASTLHNSIRPTKQNNDVQCSDKFVTISNALSNASIYPGIQTGMVPLLPLLQFPPRPGLIPTGPGLFSAVTGLVGFGNHGNRIPISPFIDYPGPEESVADTVRCPPIKDSPVTDSDQFLSRSSTQTDLQMDRNYCNVAPLVPDSMKFAECKSVSCASTILENPSAQATSKINTKPLLEASGNPDDPIEVSDDSDESMHNRQMVQRKTPISSPTYVKTSFAELNPSSFTSAASNPEEKSKIDLRN"}, "B2": {"name": "full length murine TAF3 (mTAF3), Sf9 extract (protein, UniProt Q5HZG4 1-932)", "chain": "MCESYSRSLLRVSVAQICQALGWDSVQLSACHLLTDVLQRYLQQLGRGCHRYSELYGRTDPILDDVGEAFQLMGVNLHELEDYIHNIEPVTFPHQIPSFPVSKNNVLQFPQPGSKDAEERKDYIPDYLPPIVSSQEEEEEEQVPTDGGTSAEAMQVPLEEDDEMEEEEVINDENFLGKRPLDSPEVEEMPSMKRPRLLSTKGDSLDVVLLEAREPLSSINPQKTPPVLSPVRVQDRADLAPPSPQPPMLAPFAKSQLPIAKPLETKSFTPKTKTKASSPGQKTKSPKAALSPARLGSPIRSPKTIPKEKKSPGRSKSPKSPKSPKIVAHVPQTPVRPETPNRTPSAMVVEKTVKETIPVMKPTQTPPEVVKLNIEMQPKKPVVTDKTIDDSIDAVIARACAEREPDPFEFSSGSESEGDTFTSPKRISGSECATPKASTSSNNFTKSLATPLPLSSGTSSSDNSWTMDASIDEVVRKAKLGAPSNMPPTFPYISSPSISPPTPEPLHKGYEEKAKLPSSVDVKKKLKKELKTKLKKKEKQRDRERERERNKERSKEKDKMREREKEKEAGKELKYPWRELMKDEDSDPYKFKIKEFEDIDAAKVRLKDGIVRREREKHKDKKKDRERSKREKDKRERERLKEKNREDKIKAPPTQLVLPPKEMALPLFSPSAVRVPAMLPAFSPMLPEKLFEEKEKPKEKERKKDKKEKKKKKEKEKEKEKKEREREKERREREKREKEKEKHKHEKIKVEPVIPAPSPVIPRLTLRVGAGQDKIVISKVVPAPEAKPAPSLNRPKTPPPAPVPIPVRVSPTPLQPPLLTQAAVCPALMPSPAPALSGIGSAKAPVRSVVTETVSTYVIRDEWGNQIWICPGCNKPDDGSPMIGCDDCDDWYHWPCVGIMAAPPEEMQWFCPKCANKIKKDKKHKKRKHRAH"}, "B3": {"name": "DmTAF3 amino acids 738 to 1061 (clone 11), two-hybrid library clone (domain or fragment, UniProt Q9XZU7 738-1061)", "chain": "GLIPTGPGLFSAVTGLVGFGNHGNRIPISPFIDYPGPEESVADTVRCPPIKDSPVTDSDQFLSRSSTQTDLQMDRNYCNVAPLVPDSMKFAECKSVSCASTILENPSAQATSKINTKPLLEASGNPDDPIEVSDDSDESMHNRQMVQRKTPISSPTYVKTSFAELNPSSFTSAASNPEEKSKIDLRNIVSLSSNEPLKKFKKLVKQSFPDVKSVPHTPASHSSFPQFNLPNFMGGDKFSLAGGADLIPLSRVSDSEYSSKIVPFSSLGGTIPNQIKISEEHNIFSTFSNYEDITITPTGLTSLEPKMRKHHKKLKKVKEGKNKK"}, "B4": {"name": "DmTAF3 (aa 514-924), in vitro translated (domain or fragment, UniProt Q9XZU7 514-924)", "chain": "MTPSALISLPSGTTITPTPSLGLNSENKNVPSMKINPCNIFDGTIPLTKAGVEMSIIDSPKPKKRGRKPGGKNLIKQTNVISQPLINKVERKKSSQAITLPLSSSPMIITQSSLNVSPPTEPLNLCNTEQPSNNFLSNLYAKEKKDRKKYKSLPENVMQLDKSCSPEKASTLHNSIRPTKQNNDVQCSDKFVTISNALSNASIYPGIQTGMVPLLPLLQFPPRPGLIPTGPGLFSAVTGLVGFGNHGNRIPISPFIDYPGPEESVADTVRCPPIKDSPVTDSDQFLSRSSTQTDLQMDRNYCNVAPLVPDSMKFAECKSVSCASTILENPSAQATSKINTKPLLEASGNPDDPIEVSDDSDESMHNRQMVQRKTPISSPTYVKTSFAELNPSSFTSAASNPEEKSKIDLRN", "modifications": "3H-labelled leucine"}}, "key": {"[1]": {"target": "T1, Drosophila ADA2A fused to lexA DNA binding domain (Drosophila) (UniProt Q7KSD8)", "T1 sequence": "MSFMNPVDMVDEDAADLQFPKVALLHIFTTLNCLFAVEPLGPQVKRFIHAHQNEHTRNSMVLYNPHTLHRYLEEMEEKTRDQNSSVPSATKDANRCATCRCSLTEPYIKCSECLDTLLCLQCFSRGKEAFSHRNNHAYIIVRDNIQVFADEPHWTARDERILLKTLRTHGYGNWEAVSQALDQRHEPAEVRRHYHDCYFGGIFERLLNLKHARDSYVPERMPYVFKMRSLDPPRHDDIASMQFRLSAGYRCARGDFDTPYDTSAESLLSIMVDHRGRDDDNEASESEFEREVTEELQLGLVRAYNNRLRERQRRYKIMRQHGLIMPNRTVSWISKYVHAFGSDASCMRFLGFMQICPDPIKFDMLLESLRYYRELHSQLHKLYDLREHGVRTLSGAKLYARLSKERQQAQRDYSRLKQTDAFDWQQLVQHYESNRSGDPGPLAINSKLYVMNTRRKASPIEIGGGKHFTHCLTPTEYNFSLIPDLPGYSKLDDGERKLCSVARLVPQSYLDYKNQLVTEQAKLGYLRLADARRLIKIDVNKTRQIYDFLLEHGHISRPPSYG", "test": "two-hybrid; pairwise: lexA-DBD fusions co-introduced into yeast with DmTAF3 514-924 fused to Gal4 AD; His complementation and β-galactosidase filter assay"}, "[2]": {"target": "T2, Dmp53C (amino acids 277-385) fused to lexA DNA binding domain (Drosophila melanogaster) (UniProt Q9N6D8)", "T2 sequence": "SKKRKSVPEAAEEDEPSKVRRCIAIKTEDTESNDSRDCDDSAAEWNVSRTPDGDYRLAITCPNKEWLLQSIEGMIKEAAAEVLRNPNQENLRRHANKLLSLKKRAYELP", "test": "two-hybrid; pairwise: lexA-DBD fusions co-introduced into yeast with DmTAF3 514-924 fused to Gal4 AD; His complementation and β-galactosidase filter assay"}, "[3]": {"target": "T3, Dmp53C1 (amino acids 277-351) fused to lexA DNA binding domain (Drosophila melanogaster) (UniProt Q9N6D8)", "T3 sequence": "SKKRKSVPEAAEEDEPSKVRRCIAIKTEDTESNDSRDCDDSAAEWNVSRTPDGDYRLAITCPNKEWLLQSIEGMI", "test": "two-hybrid; pairwise: lexA-DBD fusions co-introduced into yeast with DmTAF3 514-924 fused to Gal4 AD; His complementation and β-galactosidase filter assay"}, "[4]": {"target": "T4, Dmp53C2 (amino acids 349-385) fused to lexA DNA binding domain (Drosophila melanogaster) (UniProt Q9N6D8)", "T4 sequence": "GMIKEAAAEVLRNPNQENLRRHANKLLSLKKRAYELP", "test": "two-hybrid; pairwise: lexA-DBD fusions co-introduced into yeast with DmTAF3 514-924 fused to Gal4 AD; His complementation and β-galactosidase filter assay"}, "[5]": {"target": "T5, Dmp53ΔNΔC (amino acids 47-294) fused to lexA DNA binding domain (Drosophila melanogaster) (UniProt Q9N6D8)", "T5 sequence": "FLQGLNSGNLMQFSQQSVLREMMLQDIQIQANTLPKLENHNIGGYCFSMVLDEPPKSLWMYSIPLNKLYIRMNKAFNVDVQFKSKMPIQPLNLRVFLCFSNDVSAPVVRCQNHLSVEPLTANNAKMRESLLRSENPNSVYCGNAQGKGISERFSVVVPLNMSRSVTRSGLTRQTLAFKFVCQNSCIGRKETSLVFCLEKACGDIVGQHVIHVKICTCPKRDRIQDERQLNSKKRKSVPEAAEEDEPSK", "test": "two-hybrid; pairwise: lexA-DBD fusions co-introduced into yeast with DmTAF3 514-924 fused to Gal4 AD; His complementation and β-galactosidase filter assay"}, "[6]": {"target": "T6, Dmp53ΔN (amino acids 47-385) fused to lexA DNA binding domain (Drosophila melanogaster) (UniProt Q9N6D8)", "T6 sequence": "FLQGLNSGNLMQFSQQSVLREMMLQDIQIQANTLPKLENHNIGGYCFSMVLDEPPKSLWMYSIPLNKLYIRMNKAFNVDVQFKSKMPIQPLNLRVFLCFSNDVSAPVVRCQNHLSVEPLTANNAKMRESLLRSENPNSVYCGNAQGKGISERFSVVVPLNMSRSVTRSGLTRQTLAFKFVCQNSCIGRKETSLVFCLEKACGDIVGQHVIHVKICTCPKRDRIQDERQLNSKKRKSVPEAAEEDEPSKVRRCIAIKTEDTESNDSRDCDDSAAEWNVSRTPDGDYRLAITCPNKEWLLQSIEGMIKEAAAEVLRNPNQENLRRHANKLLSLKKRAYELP", "test": "two-hybrid; library screen: lexA-DBD-Dmp53ΔN as bait, Drosophila embryonic cDNA library in pACT2; His complementation and β-galactosidase colony-lift filter assay"}, "[7]": {"target": "T7, GST-Dmp53C (Drosophila melanogaster) (UniProt Q9N6D8)", "T7 sequence": "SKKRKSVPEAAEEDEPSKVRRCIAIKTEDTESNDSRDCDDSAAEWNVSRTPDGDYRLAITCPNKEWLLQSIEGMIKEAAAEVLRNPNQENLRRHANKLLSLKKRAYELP", "test": "pull-down; GST, GST-Dmp53C or GST-p53 on glutathione sepharose beads, Sf9 extract with mTAF3, over night at 4°C; wash with 200 mM KCl; Western blot with anti-TAF3; only the target purified"}, "[8]": {"target": "GST-p53 (human) (UniProt P04637)", "test": "pull-down; GST, GST-Dmp53C or GST-p53 on glutathione sepharose beads, Sf9 extract with mTAF3, over night at 4°C; wash with 200 mM KCl; Western blot with anti-TAF3; only the target purified"}, "[9]": {"target": "T7, GST-Dmp53C (Drosophila melanogaster)", "test": "pull-down; GST, GST-Dmp53C or GST-p53 on glutathione sepharose beads, Sf9 extract with mTAF3, over night at 4°C; wash with 400 mM KCl; Western blot with anti-TAF3; only the target purified"}, "[10]": {"target": "GST-p53 (human) (UniProt P04637)", "test": "pull-down; GST, GST-Dmp53C or GST-p53 on glutathione sepharose beads, Sf9 extract with mTAF3, over night at 4°C; wash with 400 mM KCl; Western blot with anti-TAF3; only the target purified"}, "[11]": {"target": "T7, GST-Dmp53C (Drosophila melanogaster)", "test": "pull-down; GST or GST-Dmp53C on glutathione beads, incubated with in vitro translated 3H-leucine DmTAF3(514-924); autoradiography; only the target purified"}}, "note": "Results are given in words; binding and its absence hold for the method and conditions named. For part of these data: Binding seen in cells or lysates may run through a third protein. Some binding calls cover weakened binding; strength is not graded here. For part of these data: Where a sequence is shown, tags or fusion partners need not be part of it.", "data": [{"binder": "B1", "values": [{"measurement": "binding", "setting": "[1]", "value": "no binding"}, {"measurement": "binding", "setting": "[2]", "value": "binds"}, {"measurement": "binding", "setting": "[3]", "value": "binds"}, {"measurement": "binding", "setting": "[4]", "value": "binds weakly"}, {"measurement": "binding", "setting": "[5]", "value": "binds weakly"}, {"measurement": "binding", "setting": "[6]", "value": "binds"}]}, {"binder": "B2", "values": [{"measurement": "binding", "setting": "[7]", "value": "binds"}, {"measurement": "binding", "setting": "[8]", "value": "binds"}, {"measurement": "binding", "setting": "[9]", "value": "binds"}, {"measurement": "binding", "setting": "[10]", "value": "binds"}]}, {"binder": "B3", "values": [{"measurement": "binding", "setting": "[6]", "value": "binds"}]}, {"binder": "B4", "values": [{"measurement": "binding", "setting": "[11]", "value": "binds"}]}]}
